Reference: publication PMC7819943, “Rice protein-binding microarrays: a tool to detect cis-acting elements near promoter regions in rice”
This is one part of the list.

molecular target: T1, OsWOX13 (Oryza sativa, UniProt Q5QMM3 1-267); assay: protein-binding microarray (RPBM); PBS, 2% BSA, 51.3 ng/ul salmon testes DNA, 50 uM zinc acetate, 200 nM TF, 25 C, 1 h; high values mean tight binding; conditions: protein: recombinant; tags: N-terminal polyhistidine and DsRed monomer fusion (pET32a); label: CyDye5-dUTP incorporated in the synthesized complementary strand; 3' TTTTT single-stranded linker to array surface; dsDNA, one strand shown
T1 sequence: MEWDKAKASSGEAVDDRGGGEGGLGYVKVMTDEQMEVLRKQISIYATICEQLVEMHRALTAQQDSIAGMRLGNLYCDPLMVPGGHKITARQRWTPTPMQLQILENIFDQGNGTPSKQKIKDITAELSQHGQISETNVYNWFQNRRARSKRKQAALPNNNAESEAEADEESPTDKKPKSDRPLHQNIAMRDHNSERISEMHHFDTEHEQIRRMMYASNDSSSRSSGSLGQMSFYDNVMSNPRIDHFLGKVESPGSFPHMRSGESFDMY
How it was run: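 The binding signal is fluorescence intensity per array feature (arbitrary units). Readings came from an Axon 4000B scanner after a washed, 2% BSA-blocked, double-stranded custom Agilent array had been incubated for 1 h at 25 °C with 200 nM protein and 50 µM zinc acetate. The protein was a Ni–NTA-purified transcription factor fused N-terminally to polyhistidine and DsRed, expressed in E. coli BL21-CodonPlus.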

Sequence | binding signal
CGACAAAATTTATTTAGAGTGCTTCTAATGCATTTGTAACCGGAGTCACCTAGTGCAG | 3590 fluorescence intensity (a.u.)
AATTAATTGATAAAAGAGTACTAGCACGCAGTAACAATATCGGAGTCACCTAGTGCAG | 10300 fluorescence intensity (a.u.)
TGATGATGACATGCTGATCGGTTCATCTGTAAACGAGTGTCGGAGTCACCTAGTGCAG | 4170 fluorescence intensity (a.u.)
GTAGATGACTAATCATTGCACCATTCTCCATTTATAGCATCGGAGTCACCTAGTGCAG | 15800 fluorescence intensity (a.u.)
GCAAATGAGGACAATCATTGATGGTAAGCTTGGTAAGACTCGGAGTCACCTAGTGCAG | 16000 fluorescence intensity (a.u.)
CTAATTACGTCATGATTTGACAATGTGGTGTGGTGCTACACGGAGTCACCTAGTGCAG | 37500 fluorescence intensity (a.u.)
CCCAAAATATATGTGACTGATACGTGGGTCCCATTGACACCGGAGTCACCTAGTGCAG | 4590 fluorescence intensity (a.u.)
TTGATTGGCAAGCCATGGTGCACGTACGCCACGGCAATGACGGAGTCACCTAGTGCAG | 34600 fluorescence intensity (a.u.)
CCATAATGATTTTACTGTTACTGGGATGGCAATATCTTTCCGGAGTCACCTAGTGCAG | 17700 fluorescence intensity (a.u.)
TCCCTCTGATTTCATTTTAATTGACGTTTTGGACAATGACCGGAGTCACCTAGTGCAG | 43400 fluorescence intensity (a.u.)
TTTAGAATTCATTTAATTTAATGCGATTTAAAATTTAAAACGGAGTCACCTAGTGCAG | 4410 fluorescence intensity (a.u.)
TTTAATTCCAATCTACGAACTGGGCCAAGAATAAATATGGCGGAGTCACCTAGTGCAG | 14000 fluorescence intensity (a.u.)
AAAATTGAATAAGACGAGTGGTCAAACGTTGCAAGCAAAACGGAGTCACCTAGTGCAG | 6750 fluorescence intensity (a.u.)
AATTTCAATCAAACTTTCAATTTTGACGTGAAGTAAACCCCGGAGTCACCTAGTGCAG | 21500 fluorescence intensity (a.u.)
AATATTTATAATTAATTTTCAAACATCCGATGTGATAGGGCGGAGTCACCTAGTGCAG | 21500 fluorescence intensity (a.u.)
AATATTGACATAACCAATTTATCTGAACATAGAGTTGTTGCGGAGTCACCTAGTGCAG | 17400 fluorescence intensity (a.u.)
AATTTGACAGATGTAATTATAGTACAATCGTAGTGTAATTCGGAGTCACCTAGTGCAG | 30000 fluorescence intensity (a.u.)
AAGATGTCATCACAAATCTATCACACTGGCCCTGATAGCCCGGAGTCACCTAGTGCAG | 5410 fluorescence intensity (a.u.)
AGTTGATTTGTCGAATATGAGCTTAAAGTTGCCTCTACCGCGGAGTCACCTAGTGCAG | 23500 fluorescence intensity (a.u.)
TTTTGATTTTGTGAGGATTCATCTCACATGCACGCACTAGCGGAGTCACCTAGTGCAG | 4120 fluorescence intensity (a.u.)
TGTGACAGGAGAATTCCTCACATCTCCTGGGTGTGTTCGTCGGAGTCACCTAGTGCAG | 9490 fluorescence intensity (a.u.)

Sequence | binding signal
GCCAACTGTTGATTACCGGGTGCGCGCCCGCGCGATTCACCGGAGTCACCTAGTGCAG | 6680 fluorescence intensity (a.u.)
ATAAATTGATGCGATAAATCTCAGCTAAATTACTGTACTTCGGAGTCACCTAGTGCAG | 36900 fluorescence intensity (a.u.)
GGGATTATTATAATCCAGATTATTGAGAGTAAGCTGAAAGCGGAGTCACCTAGTGCAG | 5050 fluorescence intensity (a.u.)
TATCCTGATTTTATGATTGTATCTCGATTATATGATATGACGGAGTCACCTAGTGCAG | 18700 fluorescence intensity (a.u.)
AAACCCATATAATTGGCAATCTACTCAGGATGACAATGCTCGGAGTCACCTAGTGCAG | 28800 fluorescence intensity (a.u.)
TCTGGTAATTTATTGTCCTCATCTATTGCAGGAAGTTGCACGGAGTCACCTAGTGCAG | 17800 fluorescence intensity (a.u.)
ACACCAATGTTAATTGTTAATTGTTAGCCTGTCAATATAGCGGAGTCACCTAGTGCAG | 25500 fluorescence intensity (a.u.)
GTTAAATGGCTAAATGACTCATTTAATTCGCATTAGTGATCGGAGTCACCTAGTGCAG | 30000 fluorescence intensity (a.u.)
TAACAACAAAACAAATTATAGATTTTGTATGTAAACTGTGCGGAGTCACCTAGTGCAG | 3590 fluorescence intensity (a.u.)
TTAATTAGGCTTAATAAATTCGTCTCGCAGTTTCCTGACGCGGAGTCACCTAGTGCAG | 6150 fluorescence intensity (a.u.)
GGTCCAATCAACATGAATAACAAAACAAAGGAAATGGATTCGGAGTCACCTAGTGCAG | 17100 fluorescence intensity (a.u.)
TTTTCTTTCTTGATTGGGAAGGAAATTGGTGGTTAATCTCCGGAGTCACCTAGTGCAG | 23700 fluorescence intensity (a.u.)
GTAATAAATAAATAAATTAAAAGAGACAGTGTAATTATTCCGGAGTCACCTAGTGCAG | 4790 fluorescence intensity (a.u.)
GGGATTGACAAGTGGGCCCATGGGAAAATTTGTCTTTAACCGGAGTCACCTAGTGCAG | 31700 fluorescence intensity (a.u.)
CACTATCAATTTGACCATGGAATTTCCAATCTGGTGGATACGGAGTCACCTAGTGCAG | 6840 fluorescence intensity (a.u.)
ATAGTTAATTTGTAGGAATCATAACGATAATATCGAACCTCGGAGTCACCTAGTGCAG | 19700 fluorescence intensity (a.u.)
AACATATTACTGTCAACTGATGACTTGGCTGTATTAGAAGCGGAGTCACCTAGTGCAG | 8000 fluorescence intensity (a.u.)
TTCAATAATTTTCTCCAACTTCGCTGGACTTTGAAAGGCCCGGAGTCACCTAGTGCAG | 4950 fluorescence intensity (a.u.)
ATCAAATTTTGAAAATTCAAAATTTGAATTGTCCAAATGACGGAGTCACCTAGTGCAG | 3610 fluorescence intensity (a.u.)
ACCATGGTAATTAGGCTTATCACGTGTGCGGAAACGATAACGGAGTCACCTAGTGCAG | 10300 fluorescence intensity (a.u.)
AAAATATATATTGAGAATTGATTAGTAATTTACGCAGCAACGGAGTCACCTAGTGCAG | 33100 fluorescence intensity (a.u.)
